Source: PubChem BioAssay AID624417 (National Center for Advancing Translational Sciences (NCATS), 2012)
Screen size: about 410,000 compounds; about 6,400 (1.6%) were called active. Inconclusive results, whose numbers are uncertain, are shown with a selection of clear calls. The call rests on the fitted dose curve; in most records, active means well fitted inhibition curve with a large enough effect; inconclusive means small, poorly fitted or top-dose-only effect; inactive means no such curve, though single readings can be large or run the other way. No potency is given beside an inconclusive call; the fits are too rough.

Molecular target: Glucagon-like peptide 1 receptor (Homo sapiens) (UniProt P43220)
Chain of UniProt P43220 (P43220 whole entry, looked up): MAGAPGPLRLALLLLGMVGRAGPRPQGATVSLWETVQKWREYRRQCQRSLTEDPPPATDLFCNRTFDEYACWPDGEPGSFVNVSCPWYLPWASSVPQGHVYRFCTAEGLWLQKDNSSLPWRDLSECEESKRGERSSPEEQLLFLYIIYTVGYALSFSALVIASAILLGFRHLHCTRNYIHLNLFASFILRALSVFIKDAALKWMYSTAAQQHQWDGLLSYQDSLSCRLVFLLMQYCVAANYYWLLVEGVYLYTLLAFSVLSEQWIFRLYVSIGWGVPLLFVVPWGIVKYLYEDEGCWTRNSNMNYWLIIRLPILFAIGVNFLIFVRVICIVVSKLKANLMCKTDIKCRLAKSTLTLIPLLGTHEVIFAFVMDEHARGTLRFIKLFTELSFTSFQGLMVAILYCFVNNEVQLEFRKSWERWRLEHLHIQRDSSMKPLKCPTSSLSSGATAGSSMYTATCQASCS
Test: qHTS of GLP-1 Receptor Inverse Agonists (Inhibition Mode); further: nearly all actives have a fitted effect of over 55% in size
Conditions: HEK293 GLP-1R CRE-luciferase, luminescence, 24 h, GLP-1R form is constitutively active; activity change, negative = inhibition: at 38.3 µM (top of the series) unless noted
How it was run: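 Assay principle: reduced luminescence from a cAMP-responsive reporter in HEK293 cells co-expressing a constitutively active GLP-1R. Conditions: 24 hr compound incubation, 37 deg C, 5% CO2.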
On the % scale 0 is the no-effect control and ±100 the full control effect; potency means the concentration at half of the fitted maximal effect; tags describe the fitted curve by direction and shape.

SMILES	Potency	activity change, negative = inhibition
Cc1ccc(CCNC(=O)c2nn(C)c3c2CS(=O)(=O)c2ccccc2-3)cc1	inconclusive [inhibitor, single point]	
CCOc1cc(/C=N\Nc2ncc(F)c(N3CCOCC3)n2)ccc1Oc1nc(Cl)ncc1F	inconclusive [inhibitor, single point]	
CC[C@H](C)[C@H](NC(N)=O)C(=O)OCC(=O)NCc1ccc(Cl)cc1	inactive	
O=C(Nc1ccc2nc(SCCOc3ccccc3Cl)sc2c1)c1ccco1	inconclusive [inhibitor, partial curve, poor fit]	
Cn1c(SCC(=O)N2CCc3ccccc3C2)nnc1-c1ccncc1	inactive	
CC(C)CC(N)c1csc(Nc2cc(Oc3ccccc3)ncn2)n1 (stereo not given)	inconclusive [inhibitor, partial curve, poor fit]	
O=C(CSc1nnc(CNC(=O)c2ccccc2)o1)NCc1ccccc1Cl	inactive	
COc1cc(COc2ccc3c(C)c(Cc4ccccc4)c(=O)oc3c2C)cc(OC)c1OC	inconclusive [inhibitor, partial curve, poor fit]	
COc1ccc(C)cc1NC(=O)C/C(C)=N/NC(=O)Cc1cccc2ccccc12	inconclusive [inhibitor, partial curve, poor fit]	
O=C(CN1CCC(C(=O)c2ccc3c(c2)OCCO3)CC1)NCc1ccc(F)cc1	inconclusive [inhibitor, partial curve, poor fit]	
O=C(OCC(=O)N(C1CCCCC1)C1CCCCC1)c1ccncc1	inconclusive [inhibitor, single point]	
CCCn1cc(S(=O)(=O)c2ccccc2)c(=O)c2cc(F)c(N3CCCCCC3)cc21	inconclusive [inhibitor, single point]	
Cc1cccc(NC(=O)c2ccccc2-c2ccccc2)c1		inactive: -8.21% [at 7.66 µM]
O=C(NCC1(N2CCCCC2)CCCCC1)c1cccc(S(=O)(=O)Nc2ccc(F)cc2)c1	inconclusive [inhibitor, single point]	
COc1cccc(N2CCN(CC(=O)Nc3ccc(S(=O)(=O)N4CCCCCC4)cc3)CC2)c1	inconclusive [inhibitor, partial curve, poor fit]	
CCCC(=O)NC(c1ccc(C(C)C)cc1)c1ccc2cccnc2c1O (stereo not given)	inconclusive [inhibitor, full curve]	
Cc1ccc(NN=C2c3ccccc3-c3ccccc32)cc1	inconclusive [inhibitor, single point]	
CC(Nc1nc(-c2ccc(F)cc2)cs1)c1nc2cc(Cl)c(Cl)cc2n1CCCO (stereo not given)	inconclusive [inhibitor, single point]	
Cc1nn(Cc2ccc(C(=O)Nc3ccccc3C(F)(F)F)o2)c(C)c1Br	inconclusive [inhibitor, partial curve, poor fit]	
COc1ccc(-c2nn(-c3ccccc3)cc2C(=O)Nc2nc(CC(C)=O)ns2)cc1	inconclusive [inhibitor, full curve, poor fit]	

SMILES	Potency	activity change, negative = inhibition
CCCCCCCNC(=O)C1(CC2CC(c3cccc(Br)c3)=NO2)CCN(C(=O)CCCCCBr)CC1 (stereo not given)	inactive	
O=S(=O)(c1ccccc1)c1nnn2c1nc(N1CCN(c3ccccc3)CC1)c1cc(Cl)ccc12	inactive	
C[C@H](CO)N1C[C@H](C)[C@@H](CN(C)C(=O)Nc2ccc(C(F)(F)F)cc2)Oc2ccc(NC(=O)Nc3ccc(C(F)(F)F)cc3)cc2C1=O	inconclusive [inhibitor, partial curve, poor fit]	
CCOC(=O)c1c(C)[nH]c(C)c1S(=O)(=O)N1CCN(c2cccc(C)c2)C(C)C1 (stereo not given)	inconclusive [inhibitor, single point]	
CCCCN(C)C(=O)c1oc2ccc(S(=O)(=O)N3CCCCCC3)cc2c1C	inconclusive [inhibitor, single point]	
Cc1ccc(NC(=O)COC(=O)c2c(-c3ccccc3)noc2C)cc1	active: 10 µM	
Cc1ccc(-n2ncc3c(NC4CCCC4)ncnc32)cc1	inconclusive [inhibitor, full curve]	
COC(=O)C1=C(C(=O)OC)[C@@H]2N(Cc3ccccc3)c3ccccc3[C@@]23C[C@@H](C(=O)OC)N(C(=O)c2cc(C)oc2C)C3=N1	active: 11.2 µM	
Cc1nn(-c2ccccc2)c(N2CCCC2)c1/C=N/NC(=S)Nc1ccccc1C(F)(F)F	inconclusive [inhibitor, single point]	
COc1ccc(-n2cc(CNC(C)c3ccncn3)c(-c3cccc(F)c3)n2)cc1 (stereo not given)	inconclusive [inhibitor, single point]	
CCOC(=O)C[C@@H]1OC2CCCCC2N1S(=O)(=O)c1ccc(C)cc1 (stereo not given in full)	inconclusive [inhibitor, single point]	
CC1=C(CCN2CCN(C3CCCC3)C(CCO)C2)C(C)(C)CCC1 (stereo not given)	inconclusive [inhibitor, partial curve, poor fit]	
CC(C)(C)n1nnnc1C(c1cc2ccccc2o1)N1CCN(C(=O)OCc2ccccc2)CC1 (stereo not given)	inconclusive [inhibitor, partial curve, poor fit]	
Cc1cnn(CCC(=O)NNC(=S)Nc2ccc(F)cc2)c1	inconclusive [inhibitor, full curve]	
O=C(c1cc2c([nH]c1=O)CCCC2)N1CCc2c([nH]c3ccccc23)C1c1ccccc1F (stereo not given)	inconclusive [inhibitor, partial curve, poor fit]	
O=S(=O)(c1ccc(SCc2ccccc2)nc1)N1CCCCCC1	inconclusive [inhibitor, partial curve, poor fit]	
CCOC(=O)CSc1cc(CSc2ccccc2)nc(-c2ccccc2)n1	inconclusive [inhibitor, single point]	
NC1=NN=C(c2ccc3c(c2)OCCO3)CS1	inconclusive [inhibitor, partial curve, poor fit]	
COc1ccc(C=NNC(=S)Nc2ccc(F)cc2)cc1OC	inconclusive [inhibitor, full curve, poor fit]	
CCOC(=O)c1cc2c(n(-c3ccccc3)c1=O)CC(C)(C)CC2=O	inconclusive [inhibitor, full curve, poor fit]	

SMILES	Potency	activity change, negative = inhibition
Cc1cccc(Oc2sc(C(=O)c3ccccc3)c(N)c2C#N)c1	inconclusive [inhibitor, partial curve, poor fit]	
CC1=C(C)C(OCCCl)N(c2cc(O)c(Cl)cc2F)C1=O (stereo not given)	inconclusive [inhibitor, partial curve, poor fit]	
c1ccc(Sc2cccc3ccccc23)c(CNC2=NCCN2)c1	inconclusive [inhibitor, partial curve, poor fit]	
CCOC(=O)Nc1ccc2c(c1)C(=NO)c1ccccc1-2	inconclusive [inhibitor, partial curve, poor fit]	
CCN(CC)S(=O)(=O)c1cccc(C(=O)NCCc2ccccc2)c1	inactive	
CCCn1cc(CN2CCCC(C(=O)c3ccc4c(c3)OCO4)C2)c(C)n1 (stereo not given)	inconclusive [inhibitor, single point]	
S=C(Nc1ccccn1)Nc1ccccc1Cl	inconclusive [inhibitor, single point]	
CC1CCn2c(nc3cc(C(=O)NCCc4ccccc4)ccc32)C1 (stereo not given)	inconclusive [inhibitor, partial curve, poor fit]	
COc1ccc(Cl)cc1N1C(=NC(=O)C2CCCCC2)SC2CS(=O)(=O)CC21 (stereo not given)	inconclusive [inhibitor, single point]	
COc1ccc(C2=CC(=O)CC(c3ccccc3)C2)cc1 (stereo not given)	inconclusive [inhibitor, single point]	
Cc1nc2ccn(Cc3cccnc3)c(=O)c2cc1C(=O)Nc1ccc(OC(F)(F)F)cc1	inactive	
Cc1ccc(C(=O)Nc2ccccc2Oc2ccccc2)cc1[N+](=O)[O-]	inconclusive [inhibitor, partial curve, poor fit]	
Cc1ccccc1NS(=O)(=O)c1ccc2[nH]cc(C(=O)N3CCCC3)c(=O)c2c1	inactive	
CN(C)C1=NC[C@H](Cc2ccccc2)N1CC1CCCCC1	inconclusive [inhibitor, partial curve, poor fit]	
CCOc1ccc(NS(=O)(=O)c2ccc(C(=O)N(C)CC(=O)Nc3ccc(C)cc3)cc2)cc1	inconclusive [inhibitor, partial curve, poor fit]	
CN(Cc1ccccc1)C(=O)COc1ccc2ccccc2c1	inconclusive [inhibitor, single point]	
C/C(=N\NC(=O)CNC(=O)c1cccs1)c1ccc(Cl)c(Cl)c1	inconclusive [inhibitor, single point]	
O=[N+]([O-])c1ccc(Sc2nc3ccccc3o2)c([N+](=O)[O-])c1	inactive	
O=C(COC(=O)/C=C/c1cccc(C(F)(F)F)c1)NCCN1C(=O)CSC1=O	inconclusive [inhibitor, partial curve, poor fit]	
CCc1ccc(CN(C)C(=O)c2cc(COc3cccc(C(F)(F)F)c3)on2)nc1	inconclusive [inhibitor, partial curve, poor fit]	
